This data set has as its system ATP. The experiment in a line: switch fluorescence ratio, 500 uM ATP over buffer (Cy3 cluster intensity, sum of 5 cycles each) (fold (ratio)); higher = stronger signal-on switching upon ATP binding; sequences stand for … in TCGTCGGCAGCGTCAGATGTGTATAAGAGACAGTTTTTTTTTTTTTTTTTTTTTTTTT…TC. The conditions noted are these: aptamer strand: ATP DNA aptamer (quencher-CACCTGGGGGAGTATTGCGGAGGAAGG + anchor), 100 nM annealed; ATP concentration: 500 uM; one replicate. The method in brief:
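Five buffer/ATP imaging cycles were run on Cy3-labelled switching-strand clusters on a modified Illumina MiSeq flow-cell, with NaOH stripping and re-annealing between cycles. In each cycle, clusters annealed to 100 nM quencher-labelled ATP aptamer were imaged in selection buffer, then after 15 min with 500 uM ATP at 22 °C. Per cluster, the fluorescence ratio is summed target-cycle over summed buffer-cycle Cy3 intensity, averaged per switch-domain sequence. Only clusters within 100-1000 RFU were kept.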

Values marked as one replicate rest on one cluster of the flow cell; about a third of the high ones do not repeat.
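Further: ATP exposure 15 min at 22 °C before imaging.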

TTGCTTCCAA: the switch fluorescence ratio was found to be 0.974. For the sequence GAACGTATT, the switch fluorescence ratio was determined as 1.06. With GCTTCTTATT the figure was 1.02; with CGCGGACATA, 1.06; with AATTAGCATA, 0.992.

With TCGTGCCCTG, the switch fluorescence ratio was 0.997. Next, TCTGTTGAG: 0.978; ATTACATAGA: 1.04; CACTGCAGTT: 1.01. As for ATCTTACGCC, the switch fluorescence ratio was 1.03.

Turning to GTTTGGCGAG, the switch fluorescence ratio turned out to be 0.992. Next, GGCCCCCTCT: 0.994; GAAAAGCTCG: 0.965; TGCACAGGGG: 2.69. With TTTGTAGCGA the figure was 1.7; with CTAGAAGGCT, 0.984; with ATATATTCTG, 1.01. With TCCTCTTTTA the figure was 0.963; with TAGCCCCACT, 0.996. With CACATTTACA, the switch fluorescence ratio worked out at 1.1. Next, GGTCTATGGG: 1. In the case of TTCGGTAGAT, the switch fluorescence ratio came out at 0.94. With GCTATTAGGT the figure was 1.02; with GGGCCATTTT, 0.987; with GCCGGAATGT, 1.12.

For TTGCCAGTCA, the switch fluorescence ratio is 0.991. Turning to ACCGGAGTTA, the switch fluorescence ratio came to 1.16.

On to GCCTGGGGCA, for which the switch fluorescence ratio stood at 0.995. With CCATGTATTG the figure was 0.963; with TAATGCTACT, 1; with TTAAGGAACC, 0.969.

With AACCGGCATG, the switch fluorescence ratio was 1.03.

Turning to GCCAGCCGCC, the switch fluorescence ratio came to 1.09.

In the case of ACTGTCGTGA, the switch fluorescence ratio is 1.

As to AGAATTTCTT, the switch fluorescence ratio is 0.995.

For GGTATATTGT, the switch fluorescence ratio worked out at 1.01.

Regarding CGCCTTTGTA, the switch fluorescence ratio was 1.02. As to AATTGCCGTT, the switch fluorescence ratio worked out at 1.05. Regarding CCTAAGGTAC, the switch fluorescence ratio was 1.96. For TCATAGTAGT, the switch fluorescence ratio worked out at 1.01.

Regarding AAATACGGTA, the switch fluorescence ratio was determined as 1.21. Next, AATTGGGTC: 1.02. Turning to ATATTACCCG, the switch fluorescence ratio worked out at 1.01.

As to TCAGACTAGG, the switch fluorescence ratio stood at 0.983. With TTTTAACACG the figure was 1.02; with TGATGGTCTT, 1.02.

With GGTATGTAGT, the switch fluorescence ratio was determined as 0.994. With GGCAACAACT the figure was 1.04; with ACGTATAGCA, 1.11.

For the sequence AAGCCATCCA, the switch fluorescence ratio was 1.04. Next, CGATGCTCTT: 1.02. Next, GCTAGGAATA: 0.999; CCAGTTGGAA: 1.05; GTGTCCCATT: 1.05.

As to CCGGACCTAT, the switch fluorescence ratio is 1.14. For TAGCATCAGA, the switch fluorescence ratio was 1.02.

Regarding AGGAGTGTTG, the switch fluorescence ratio was 1.01. With CCATTGCACA the figure was 1.41; with CATCCTTAAA, 1.12.

AATCGCTACC: the switch fluorescence ratio came out at 1.13. With ACAGTGTTTG, the switch fluorescence ratio was 0.966.

As to TACTAAGTTT, the switch fluorescence ratio was 1.07. Consider CCACTTTGCG, for which the switch fluorescence ratio was found to be 1.03. Next, ACATCCACTA: 1.2; CTATATTATG: 1.02. With CTTGAAACGA the figure was 1; with AGCACTCGGC, 1.04; with GCTGGCGCCC, 0.992. As for GTTGCTCGTC, the switch fluorescence ratio is 1.

For TCGTTACCGA, the switch fluorescence ratio worked out at 1.04. Turning to GCATCTGAGT, the switch fluorescence ratio is 0.998.

Take TAAACGATCT: the switch fluorescence ratio is 1.01. On to CGTGAACGGG, for which the switch fluorescence ratio was determined as 1.01. Next, TCGGGACCAT: 0.992; CTATGAGACG: 1.06. For AAATAATCCC, the switch fluorescence ratio was found to be 1.06. As for TCCCTGTTAA, the switch fluorescence ratio was 1.04. With TTGTCCAGCA the figure was 1. With GATATAGCGT the figure was 0.961; with GGGTCAGAAG, 0.961; with TACTACAGGT, 1.08.

With CGGTTCCTCT, the switch fluorescence ratio was 1.

CAATGTTGCG: the switch fluorescence ratio was found to be 1.02.

Regarding GGTAGCAATG, the switch fluorescence ratio turned out to be 1.94. With CACGACATCG the figure was 1.03; with AGAGAAGTAC, 1.21.

For the sequence CATAAAGGGA, the switch fluorescence ratio worked out at 1.01. GGTGAAATCG: the switch fluorescence ratio was 0.936.

For the sequence TCTTGATCTC, the switch fluorescence ratio is 1.01.

With GAATGGACGG, the switch fluorescence ratio is 1.03.

TTTGCTACTA: the switch fluorescence ratio amounted to 1.07.

With TTACTGGTCT, the switch fluorescence ratio is 1.03. Next, ATAAGTCTAA: 0.957; GAAGTACGCC: 1.12. Next, TGCATAAAGG: 1.04; GAGGGAGCTA: 1.05; AGGGTAGACT: 0.964.

In the case of CTGGTTCATT, the switch fluorescence ratio worked out at 1.03. Consider TGCTGATAGG, for which the switch fluorescence ratio worked out at 1.03.

Consider TATCTAGTG, for which the switch fluorescence ratio turned out to be 1. Next, CATAGTTGGC: 1.06; TGGGAATCGC: 0.995; ATACTAGGAA: 1.02. Next, ACCGTCCTCT: 1.48; AATGTAATGT: 1.06; ACCTCCCGTA: 1.16. Regarding TAAGGCATCC, the switch fluorescence ratio was 1.09.

TGCTGTGGC: the switch fluorescence ratio is 0.993. With CTCGGACCCC the figure was 1.08; with TTTGTGACAT, 1.03.

As for CCCTACCGGC, the switch fluorescence ratio turned out to be 1.05. On to CGAAGATGCT, for which the switch fluorescence ratio worked out at 1.01.

GAACGATTAA: the switch fluorescence ratio was 0.984.

As to CGAAAATATT, the switch fluorescence ratio stood at 0.996. Next, GCTAGCCTGC: 1.02. With CGTTCCGACA, the switch fluorescence ratio was 1.38. For the sequence TTTCGATGAG, the switch fluorescence ratio was 1.03. With TGTGCCTGAA the figure was 1.02. With TTTGGGCGTT the figure was 1.02; with GACGACCAGT, 1.05.
